Experimental data from the supplement of paper PMC4604168 (melanoma cell lines).
This is one part of the list. Single values are uncertain, as repeats are few or missing.

These compounds were tested on UACC257 (assay: cell count relative to DMSO control; melanoma cells; higher = more viable cells). Conditions: library dose: standard library concentration; 72 h.
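Note: cells treated in 1,536-well plates, then fixed and DAPI-stained, with nuclei counted from automated high-throughput microscope images.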

Compound	cell count [%]
CC1(C)CCC(c2ccc(Cl)cc2)=C(CN2CCN(c3ccc(C(=O)NS(=O)(=O)c4ccc(N[C@H](CCN5CCOCC5)CSc5ccccc5)c(S(=O)(=O)C(F)(F)F)c4)cc3)CC2)C1 + CCCCCCCCCCCC1=C(O)C(=O)C=C(O)C1=O [Embelin] (first compound 2 µM, partner dose 6 µM)	22
Cc1ccc(Nc2nccc(N(C)c3ccc4c(C)n(C)nc4c3)n2)cc1S(N)(=O)=O [Pazopanib] + NCC(=O)Nc1ccc(-n2nc(C(F)(F)F)cc2-c2ccc3c(ccc4ccccc43)c2)cc1 [OSU03012] (first compound 2 µM, partner dose 5 µM)	69
O=C(/C=C/c1cccnc1)NCCCCC1CCN(C(=O)c2ccccc2)CC1 + Cn1cc(/C=C2\C(=O)Nc3cccnc32)c2ccccc21 [GW441756] (first compound 0.05 µM, partner dose 2 µM)	101
O=C(/C=C/c1cccnc1)NCCCCC1CCN(C(=O)c2ccccc2)CC1 + CCCCCCCCCCCC1=C(O)C(=O)C=C(O)C1=O [Embelin] (first compound 0.05 µM, partner dose 6 µM)	89.9
O=C(/C=C/c1cccnc1)NCCCCC1CCN(C(=O)c2ccccc2)CC1 + Cc1cc(Nc2cc(N3CCN(C)CC3)nc(/C=C/c3ccccc3)n2)n[nH]1 [ENMD2076] (first compound 0.05 µM, partner dose 0.2 µM)	87.8
O=C(/C=C/c1cccnc1)NCCCCC1CCN(C(=O)c2ccccc2)CC1 + COC(=O)c1sccc1S(=O)(=O)Nc1ccc(Nc2ccccc2)cc1OC [GSK0660] (first compound 0.05 µM, partner dose 5 µM)	80.1

Each compound was assayed on UACC62 in the same assay as above. Conditions: library dose: standard library concentration; 72 h.

Compound	cell count [%]
CC1(C)CCC(c2ccc(Cl)cc2)=C(CN2CCN(c3ccc(C(=O)NS(=O)(=O)c4ccc(N[C@H](CCN5CCOCC5)CSc5ccccc5)c(S(=O)(=O)C(F)(F)F)c4)cc3)CC2)C1 + Cc1cc([N+](=O)[O-])ccc1NS(=O)(=O)c1cc(Cl)ccc1Cl [FH535] (first compound 2 µM, partner dose 5 µM)	66
O=C(/C=C/c1cccnc1)NCCCCC1CCN(C(=O)c2ccccc2)CC1 + CCc1ccc(CCOc2ccc(CC3SC(=O)NC3=O)cc2)nc1 [pioglitazone] (first compound 0.05 µM, partner dose 10 µM)	80.4
Cc1ccc(Nc2nccc(N(C)c3ccc4c(C)n(C)nc4c3)n2)cc1S(N)(=O)=O [Pazopanib] + COc1cc(N2CCC(N3CCN(C)CC3)CC2)ccc1Nc1ncc(Cl)c(Nc2ccccc2S(=O)(=O)C(C)C)n1 [NVP-TAE684] (first compound 2 µM, partner dose 0.4 µM)	65.3
O=C(/C=C/c1cccnc1)NCCCCC1CCN(C(=O)c2ccccc2)CC1 + COc1ccc(-c2ccc3c(N4CCOCC4)nc(N4C[C@@H](C)O[C@@H](C)C4)nc3n2)cc1CO [KU0063794] (first compound 0.05 µM, partner dose 0.1 µM)	82.4
Cc1ccc(Nc2nccc(N(C)c3ccc4c(C)n(C)nc4c3)n2)cc1S(N)(=O)=O [Pazopanib] + CCN(CC)CCCCNc1ncc2cc(-c3cc(OC)cc(OC)c3)c(NC(=O)NC(C)(C)C)nc2n1 [PD173074] (first compound 2 µM, partner dose 0.5 µM)	77
CC1(C)CCC(c2ccc(Cl)cc2)=C(CN2CCN(c3ccc(C(=O)NS(=O)(=O)c4ccc(N[C@H](CCN5CCOCC5)CSc5ccccc5)c(S(=O)(=O)C(F)(F)F)c4)cc3)CC2)C1 + NCC(=O)Nc1ccc(-n2nc(C(F)(F)F)cc2-c2ccc3c(ccc4ccccc43)c2)cc1 [OSU03012] (first compound 2 µM, partner dose 5 µM)	45.7
CC1(C)CCC(c2ccc(Cl)cc2)=C(CN2CCN(c3ccc(C(=O)NS(=O)(=O)c4ccc(N[C@H](CCN5CCOCC5)CSc5ccccc5)c(S(=O)(=O)C(F)(F)F)c4)cc3)CC2)C1 + Cc1cc(Nc2cc(N3CCN(C)CC3)nc(/C=C/c3ccccc3)n2)n[nH]1 [ENMD2076] (first compound 2 µM, partner dose 0.2 µM)	60.9
Cc1ccc(Nc2nccc(N(C)c3ccc4c(C)n(C)nc4c3)n2)cc1S(N)(=O)=O [Pazopanib] + c1cc(-c2cnn3cc(-c4ccc(OCCN5CCCCC5)cc4)cnc23)ccn1 [Dorsomorphin] (first compound 2 µM, partner dose 2 µM)	41.8
CC1(C)CCC(c2ccc(Cl)cc2)=C(CN2CCN(c3ccc(C(=O)NS(=O)(=O)c4ccc(N[C@H](CCN5CCOCC5)CSc5ccccc5)c(S(=O)(=O)C(F)(F)F)c4)cc3)CC2)C1 + CCc1ccc(CCOc2ccc(CC3SC(=O)NC3=O)cc2)nc1 [pioglitazone] (first compound 2 µM, partner dose 10 µM)	63.7
Cc1ccc(Nc2nccc(N(C)c3ccc4c(C)n(C)nc4c3)n2)cc1S(N)(=O)=O [Pazopanib] + COC(=O)c1sccc1S(=O)(=O)Nc1ccc(Nc2ccccc2)cc1OC [GSK0660] (first compound 2 µM, partner dose 5 µM)	84.3
Cc1ccc(Nc2nccc(N(C)c3ccc4c(C)n(C)nc4c3)n2)cc1S(N)(=O)=O [Pazopanib] + C#Cc1cccc(Nc2ncnc3cc(OCCOC)c(OCCOC)cc23)c1 [erlotinib] (first compound 2 µM, partner dose 4 µM)	44.4
O=C(/C=C/c1cccnc1)NCCCCC1CCN(C(=O)c2ccccc2)CC1 + CN(NC(=O)CC(=O)NN(C)C(=S)c1ccccc1)C(=S)c1ccccc1 [STA4783] (first compound 0.05 µM, partner dose 0.03 µM)	41.7
CC1(C)CCC(c2ccc(Cl)cc2)=C(CN2CCN(c3ccc(C(=O)NS(=O)(=O)c4ccc(N[C@H](CCN5CCOCC5)CSc5ccccc5)c(S(=O)(=O)C(F)(F)F)c4)cc3)CC2)C1 + O=C(O)C(=O)Nc1sc2c(c1C(=O)O)CCNC2 [TCS401] (first compound 2 µM, partner dose 8.33333 µM)	91.7
Cc1ccc(Nc2nccc(N(C)c3ccc4c(C)n(C)nc4c3)n2)cc1S(N)(=O)=O [Pazopanib] + O=S(=O)(c1ccccc1)N(CC(F)(F)F)c1ccc(C(O)(C(F)(F)F)C(F)(F)F)cc1 [T0901317] (first compound 2 µM, partner dose 7 µM)	81.5
O=C(/C=C/c1cccnc1)NCCCCC1CCN(C(=O)c2ccccc2)CC1 + COc1ccc(COc2ccc(Cc3cnc(N)nc3N)cc2OC)cc1 [GW2580] (first compound 0.05 µM, partner dose 5 µM)	77.3
Cc1ccc(Nc2nccc(N(C)c3ccc4c(C)n(C)nc4c3)n2)cc1S(N)(=O)=O [Pazopanib] + CCCCCCCCCCCC1=C(O)C(=O)C=C(O)C1=O [Embelin] (first compound 2 µM, partner dose 6 µM)	60.2
Cc1ccc(Nc2nccc(N(C)c3ccc4c(C)n(C)nc4c3)n2)cc1S(N)(=O)=O [Pazopanib] + O=c1cc(-c2cccc3c2Sc2ccccc2S3)oc(N2CCOCC2)c1 [KU55933] (first compound 2 µM, partner dose 5 µM)	85.7
O=C(/C=C/c1cccnc1)NCCCCC1CCN(C(=O)c2ccccc2)CC1 + O=C(Nc1cccc(Cl)c1)Nc1ncc(CCNc2ncnc3ccsc23)s1 [SNS314] (first compound 0.05 µM, partner dose 0.004 µM)	86.2
O=C(/C=C/c1cccnc1)NCCCCC1CCN(C(=O)c2ccccc2)CC1 + COc1cc(N2CCC(N3CCN(C)CC3)CC2)ccc1Nc1ncc(Cl)c(Nc2ccccc2S(=O)(=O)C(C)C)n1 [NVP-TAE684] (first compound 0.05 µM, partner dose 0.4 µM)	78.3
Cc1ccc(Nc2nccc(N(C)c3ccc4c(C)n(C)nc4c3)n2)cc1S(N)(=O)=O [Pazopanib] + COc1cc2ncnc(Nc3ccc(Oc4ccccc4)cc3)c2cc1OC [SrcI1] (first compound 2 µM, partner dose 10 µM)	44.5
Cc1ccc(Nc2nccc(N(C)c3ccc4c(C)n(C)nc4c3)n2)cc1S(N)(=O)=O [Pazopanib] + OCCn1cc(-c2cnc3nnn(Cc4ccc5ncccc5c4)c3n2)cn1 [PF04217903] (first compound 2 µM, partner dose 5 µM)	84.2
Cc1ccc(Nc2nccc(N(C)c3ccc4c(C)n(C)nc4c3)n2)cc1S(N)(=O)=O [Pazopanib] + Cn1cc(/C=C2\C(=O)Nc3cccnc32)c2ccccc21 [GW441756] (first compound 2 µM, partner dose 2 µM)	48.9
Cc1ccc(Nc2nccc(N(C)c3ccc4c(C)n(C)nc4c3)n2)cc1S(N)(=O)=O [Pazopanib] + OCc1c[nH]c2ccccc12 [Indole-3-carbinol] (first compound 2 µM, partner dose 4 µM)	88.6
CC1(C)CCC(c2ccc(Cl)cc2)=C(CN2CCN(c3ccc(C(=O)NS(=O)(=O)c4ccc(N[C@H](CCN5CCOCC5)CSc5ccccc5)c(S(=O)(=O)C(F)(F)F)c4)cc3)CC2)C1 + COc1cc2c(Oc3ccc4[nH]c(C)cc4c3F)ncnc2cc1OCCCN1CCCC1 [cediranib] (first compound 2 µM, partner dose 2 µM)	91.4
